The source of these data is PMC9090332, “Reconstitution of surface lipoprotein translocation through the Slam translocon” (eLife, 2022).

The chains behind the UniProt entries cited, without tags or fusion partners. Residues count along the entry.
UniProt P02787, residues 20-698: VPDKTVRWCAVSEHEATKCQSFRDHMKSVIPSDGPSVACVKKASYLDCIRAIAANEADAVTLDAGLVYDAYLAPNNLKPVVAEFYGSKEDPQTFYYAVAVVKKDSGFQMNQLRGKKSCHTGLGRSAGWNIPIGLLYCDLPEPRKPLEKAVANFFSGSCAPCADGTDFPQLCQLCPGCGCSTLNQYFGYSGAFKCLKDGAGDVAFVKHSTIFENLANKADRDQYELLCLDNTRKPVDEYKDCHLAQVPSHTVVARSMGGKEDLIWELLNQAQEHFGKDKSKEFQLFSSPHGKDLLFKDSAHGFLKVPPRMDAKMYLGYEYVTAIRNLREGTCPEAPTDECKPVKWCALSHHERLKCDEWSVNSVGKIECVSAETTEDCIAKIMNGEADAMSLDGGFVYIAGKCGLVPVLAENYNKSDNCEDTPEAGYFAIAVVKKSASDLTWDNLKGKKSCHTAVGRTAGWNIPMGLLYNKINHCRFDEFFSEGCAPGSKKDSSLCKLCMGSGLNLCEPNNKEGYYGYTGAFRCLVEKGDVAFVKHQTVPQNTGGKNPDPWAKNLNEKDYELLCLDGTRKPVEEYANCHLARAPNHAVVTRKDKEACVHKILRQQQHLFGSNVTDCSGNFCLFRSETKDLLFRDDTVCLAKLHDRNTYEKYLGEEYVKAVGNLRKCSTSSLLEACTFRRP
UniProt P0ABZ6, residues 21-428: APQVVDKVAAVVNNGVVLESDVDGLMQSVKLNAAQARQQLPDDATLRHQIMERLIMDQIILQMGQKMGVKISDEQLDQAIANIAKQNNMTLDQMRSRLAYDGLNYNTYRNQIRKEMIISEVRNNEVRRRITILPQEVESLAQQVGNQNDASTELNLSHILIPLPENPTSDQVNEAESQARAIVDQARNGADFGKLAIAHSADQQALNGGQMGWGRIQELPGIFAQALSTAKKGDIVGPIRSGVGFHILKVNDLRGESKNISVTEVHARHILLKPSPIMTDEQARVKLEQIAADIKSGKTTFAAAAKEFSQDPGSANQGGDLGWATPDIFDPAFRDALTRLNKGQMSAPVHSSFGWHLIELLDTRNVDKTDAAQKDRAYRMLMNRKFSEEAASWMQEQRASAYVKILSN

These are yes or no findings as the source states them, for the method shown. For some assays here: Binding seen in cells or lysates may run through a third protein. Some binding calls cover weakened binding; strength is not graded here. Sequences can lack the tags named with a protein.

The target of experiment [1] is T1, Moraxella catarrhalis transferrin binding protein B, C-terminal flag-tag (Moraxella catarrhalis) (UniProt P0DTW7).
T1 sequence (chain, lipidated (processed by Lgt, Lsp, and Lnt)): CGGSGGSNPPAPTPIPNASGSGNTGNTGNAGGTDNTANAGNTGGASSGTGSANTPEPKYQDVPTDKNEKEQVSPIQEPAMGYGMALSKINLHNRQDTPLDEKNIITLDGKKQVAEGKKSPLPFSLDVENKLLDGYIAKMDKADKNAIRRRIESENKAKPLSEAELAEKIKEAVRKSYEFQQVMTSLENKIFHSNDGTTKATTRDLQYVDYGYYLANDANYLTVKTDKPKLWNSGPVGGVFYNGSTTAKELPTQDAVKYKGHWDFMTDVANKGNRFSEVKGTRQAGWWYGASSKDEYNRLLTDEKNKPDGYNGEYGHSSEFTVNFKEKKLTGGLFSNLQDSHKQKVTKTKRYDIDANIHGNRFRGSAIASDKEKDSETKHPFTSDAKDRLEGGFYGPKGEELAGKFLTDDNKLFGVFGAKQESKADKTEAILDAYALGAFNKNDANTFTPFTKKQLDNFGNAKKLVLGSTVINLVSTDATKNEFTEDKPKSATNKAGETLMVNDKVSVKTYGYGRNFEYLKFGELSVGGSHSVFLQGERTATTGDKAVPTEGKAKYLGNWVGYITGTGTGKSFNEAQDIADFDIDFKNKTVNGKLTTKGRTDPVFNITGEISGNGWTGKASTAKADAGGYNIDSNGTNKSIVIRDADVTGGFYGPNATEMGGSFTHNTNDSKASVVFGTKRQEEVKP
Nature of the experiment: far-Western, overlay or dot blot; 0.5 μl TbpB (1 mg/ml) spotted on nitrocellulose, blocked with 5% skim milk, developed with biotinylated human transferrin (50 μg/ml) and streptavidin-conjugated HRP; both purified.

Experiment [2] addresses T1, Moraxella catarrhalis transferrin binding protein B, C-terminal flag-tag (Moraxella catarrhalis). Description: pull-down; flag beads with supernatant of E. coli spheroplasts releasing flag-tagged TbpB or AfuA; eluted with 50 mM glycine pH 2.8; western blot with α-E. coli Skp antibody; partner endogenous in the supernatant. Background: In western blotting, separated proteins are transferred to a membrane and probed.

For experiment [3], the target named is iron-loaded human transferrin conjugated to beads (human) (UniProt P02787). Description: condition: only TbpB left after proteinase K with Bam proteoliposomes (not translocated); pull-down; as a7, but the TbpB left after proteinase K with the negative control Bam proteoliposomes; only the target purified.
The target of experiment [4] is T2, E. coli Skp with N-terminal 6xHis tag, purified (E. coli) (UniProt P0AEU7).
T2 sequence: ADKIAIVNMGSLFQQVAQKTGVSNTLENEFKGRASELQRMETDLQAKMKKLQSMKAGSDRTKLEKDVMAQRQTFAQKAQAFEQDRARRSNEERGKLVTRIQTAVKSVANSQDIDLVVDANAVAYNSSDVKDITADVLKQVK
Description: pull-down; reciprocal pulldown: 10 μM purified His-tagged chaperone (SurA, Skp or DegP) and 10 μM untagged LolA added during TbpB/HpuA (AfuA control) expression in E. coli spheroplasts; supernatant on Ni-resin 2 hr at 4°C; washed with 50 mM Tris 7, 200 mM NaCl, 10 mM imidazole, 0.1% Triton X-100; eluted with 200 mM imidazole; α-flag western blot; only the target purified.

The target of experiment [5] is T3, E. coli DegP with N-terminal 6xHis tag, purified (E. coli) (UniProt P0C0V0).
T3 sequence: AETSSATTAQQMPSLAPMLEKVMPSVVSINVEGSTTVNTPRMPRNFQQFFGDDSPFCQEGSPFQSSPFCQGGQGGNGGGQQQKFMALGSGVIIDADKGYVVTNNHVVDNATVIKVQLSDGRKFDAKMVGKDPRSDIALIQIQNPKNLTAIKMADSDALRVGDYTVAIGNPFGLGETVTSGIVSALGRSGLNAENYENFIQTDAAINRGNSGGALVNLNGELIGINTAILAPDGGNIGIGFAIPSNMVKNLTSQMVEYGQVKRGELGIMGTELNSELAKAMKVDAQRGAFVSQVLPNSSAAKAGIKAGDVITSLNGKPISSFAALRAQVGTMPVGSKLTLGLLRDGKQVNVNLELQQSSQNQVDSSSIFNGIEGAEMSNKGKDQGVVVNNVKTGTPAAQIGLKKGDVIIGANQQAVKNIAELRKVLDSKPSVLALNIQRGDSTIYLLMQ
Described as above.

Experiment [6] has as its target E. coli SurA with N-terminal 6xHis tag, purified (E. coli) (UniProt P0ABZ6). The description is as above.
Experiment [7] concerns the target iron-loaded human transferrin conjugated to beads (human) (UniProt P02787). Description: pull-down; spheroplast-secreted TbpB protected from proteinase K by Slam1 proteoliposomes; 1 mM PMSF, dissolved in 0.1% Triton X, incubated with iron-loaded human transferrin-conjugated beads; α-flag blot; only the target purified.
Experiment [8] has as its target T1, Moraxella catarrhalis transferrin binding protein B, C-terminal flag-tag (Moraxella catarrhalis). Nature of the experiment: pull-down; flag beads with supernatant of E. coli spheroplasts releasing flag-tagged TbpB or AfuA; eluted with 50 mM glycine pH 2.8; purified His-tagged LolA added to the spheroplasts, detected with α-his antibody; only the binder purified.

In the case of “biotinylated human transferrin (from UniProt P02787 20-698)”, the binding entry in experiment [1] is reported as “binds”.

B1: periplasmic chaperone Skp of E. coli, endogenous (protein, UniProt P0AEU7 21-161)
chain: T2 sequence
In the case of B1, the binding entry in experiment [2] is “binds”.

B2: Moraxella catarrhalis transferrin binding protein B, C-terminal flag-tag (natural protein)
chain: T1 sequence (chain, lipidated (processed by Lgt, Lsp, and Lnt))
modifications: lipidated (processed by Lgt, Lsp, and Lnt)
For the molecule B2, the binding result is given as “no binding” in experiment [3]; “binds” in experiment [4]; “no binding (tested: 10 μM of each chaperone)” in experiment [5]; “no binding (tested: 10 μM of each chaperone)” in experiment [6]; “binds” in experiment [7].

B3: E. coli LolA with 6xHis tag, purified (protein, UniProt P61316 22-203)
chain: DAASDLKSRLDKVSSFHASFTQKVTDGSGAAVQEGQGDLWVKRPNLFNWHMTQPDESILVSDGKTLWFYNPFVEQATATWLKDATGNTPFMLIARNQSSDWQQYNIKQNGDDFVLTPKASNGNLKQFTINVGRDGTIHQFSAVEQDDQRSSYQLKSQQNGAVDAAKFTFTPPQGVTVDDQRK
On to B3, for which the binding result in experiment [8] is “binds”.
